We go through 58 molecules from publication PMC4336329 (PLoS ONE, 2015).

Hit rate of the full screen: of about 310,000 compounds, about 2,200 (0.71%) showed an effect of 50% or more. The effect is printed as a negative number. Some of the results follow.

This assay deals with human ether-à-go-go-related gene (hERG) potassium channel (human, UniProt Q12809). The assay can be described thus: primary screen, population patch clamp on CHO cells stably expressing hERG.
Chain of human ether-à-go-go-related gene (hERG) potassium channel (Q12809 whole entry, looked up): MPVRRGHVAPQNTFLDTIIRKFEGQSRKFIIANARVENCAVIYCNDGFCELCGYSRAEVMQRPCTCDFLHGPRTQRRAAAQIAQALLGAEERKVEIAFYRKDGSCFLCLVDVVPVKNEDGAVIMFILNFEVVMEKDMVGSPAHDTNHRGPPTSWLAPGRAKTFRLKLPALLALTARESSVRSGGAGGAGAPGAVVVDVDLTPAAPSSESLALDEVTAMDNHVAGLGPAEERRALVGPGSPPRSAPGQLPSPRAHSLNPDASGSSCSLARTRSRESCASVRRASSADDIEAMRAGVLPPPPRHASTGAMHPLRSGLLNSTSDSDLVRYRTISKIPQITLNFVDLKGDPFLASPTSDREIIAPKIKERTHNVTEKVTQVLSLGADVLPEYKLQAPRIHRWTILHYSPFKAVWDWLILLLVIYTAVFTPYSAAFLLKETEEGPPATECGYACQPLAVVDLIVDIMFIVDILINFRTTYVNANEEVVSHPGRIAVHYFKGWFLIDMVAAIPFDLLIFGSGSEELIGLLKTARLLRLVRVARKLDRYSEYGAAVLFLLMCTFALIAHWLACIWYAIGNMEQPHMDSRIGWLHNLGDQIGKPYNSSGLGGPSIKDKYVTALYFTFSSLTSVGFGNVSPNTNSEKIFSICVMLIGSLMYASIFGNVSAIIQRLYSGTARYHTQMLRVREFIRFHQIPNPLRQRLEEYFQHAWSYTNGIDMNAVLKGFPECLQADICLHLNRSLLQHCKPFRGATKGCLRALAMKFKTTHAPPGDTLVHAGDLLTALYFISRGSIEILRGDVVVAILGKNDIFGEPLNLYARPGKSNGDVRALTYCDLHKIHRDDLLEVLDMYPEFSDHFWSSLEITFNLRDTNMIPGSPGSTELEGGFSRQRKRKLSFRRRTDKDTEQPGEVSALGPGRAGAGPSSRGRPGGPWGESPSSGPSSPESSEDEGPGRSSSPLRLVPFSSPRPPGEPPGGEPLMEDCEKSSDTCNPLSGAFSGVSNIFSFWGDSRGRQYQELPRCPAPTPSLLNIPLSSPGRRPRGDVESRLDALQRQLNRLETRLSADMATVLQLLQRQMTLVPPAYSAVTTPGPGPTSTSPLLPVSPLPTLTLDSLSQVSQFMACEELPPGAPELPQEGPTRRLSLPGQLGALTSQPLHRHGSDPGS
Regarding `OC1(c2ccc(F)cc2)CC2CCC(C1)N2Cc1nnnn1C1CCCC1` (stereo not shown), the “hERG current change (%, negative = inhibition) at 1uM” value is recorded as -0.602%.
`Cc1ccc(-c2cc(C(=O)Nc3cc(C)ccc3O)no2)cc1`: the “hERG current change (%, negative = inhibition) at 1uM” value turned out to be 15.7%.
In the case of `COCCC(=O)N1CCC(Oc2ccc(C(=O)N3CCCCCC3)cc2)CC1`, the “hERG current change (%, negative = inhibition) at 1uM” value was 8.92%.
Consider `CCC1Oc2ccccc2N(CC(=O)NCCCN2CCN(CC)CC2)C1=O` (stereo not shown), for which the “hERG current change (%, negative = inhibition) at 1uM” value is 5.96%.
As for `CN(C)/C=C/C(=O)c1ccccc1OCc1cnc(Cl)s1`, the “hERG current change (%, negative = inhibition) at 1uM” value is given as 0.765%.
In the case of `O=C(Nc1cccc2ncccc12)c1ccc(-c2ccc(Br)cc2)o1` it was -1.73%; in that of `CCCCC/C(=N/O)c1c(C)[nH]c2ccccc12`, 12.2%.
In the case of `Cc1cc(C)n(-c2ncc(C#N)cn2)n1` it was 10.7%; in that of `S=c1ccc2ccccc2[nH]1`, -0.594%.
Consider `CCN(C(=O)CCS(=O)(=O)c1cccc2nonc12)c1ccc(C)c(C)c1`, for which the “hERG current change (%, negative = inhibition) at 1uM” value worked out at 5.11%.
In the case of `Oc1ccc(O)c(-c2cnns2)c1` it was -0.746%; in that of `C1=CC2CCC1ON2c1ccccc1` (stereo not shown), 8.77%.
For the molecule `NC(=O)COc1ccc(/C=C2\C(=O)ON=C2c2ccccc2)cc1`, the “hERG current change (%, negative = inhibition) at 1uM” value stood at 13.4%.
`COc1ccc(NC(=O)c2cc(-c3cc(C)cc(C)c3O)n[nH]2)cc1Cl`: the “hERG current change (%, negative = inhibition) at 1uM” value is given as 6.46%.
Regarding `CC(C)(C)C(=O)COC(=O)C1CC(=O)N(c2ccccc2)C1` (stereo not shown), the “hERG current change (%, negative = inhibition) at 1uM” value turned out to be 17%.
Turning to `CN(C(=O)COC(=O)C12CC3CC(CC(C3)C1)C2)c1c(N)n(Cc2ccccc2)c(=O)[nH]c1=O`, the “hERG current change (%, negative = inhibition) at 1uM” value is 10.8%.
As to `CC1Sc2ccc(S(=O)(=O)CCC(=O)NCc3ccc(Cl)cc3)cc2NC1=O` (stereo not shown), the “hERG current change (%, negative = inhibition) at 1uM” value turned out to be 8.85%.
To `CCOc1cc(-c2nc(C)c(C(C)=O)n2O)ccc1OCC(=O)Nc1cccc(C)c1` belongs 3.9%.
To `CCOC(=O)C1=NN(c2ccccc2)C(c2ccccc2)CC1=O` (stereo not shown) belongs 10.9%.
To `COc1cc(C)nc(OCCNC(=O)COc2ccc(Cl)cc2C)n1` belongs -0.137%; to `CCN1C(=O)[C@H]2[C@@H](c3ccc(Cl)cc3)N3C(=O)CN(CCOC)C(=O)[C@@]3(Cc3ccccc3)[C@H]2C1=O`, 4.24%.
Consider `CCOC(=O)C(C(=O)OCC)N(C#N)c1nc(N(C)C)nc(N(C)C)n1`, for which the “hERG current change (%, negative = inhibition) at 1uM” value is recorded as 13.1%.
To `Cc1nc(-c2ccccc2)sc1C(=O)/C=C/N(C)C` belongs 0.555%; to `Cc1cc(C)n2nc(SCC(=O)N3CCOCC3)nc2n1`, 9.84%; to `CCC1(c2ccc(F)cc2)NC(=O)N(CC(=O)NCc2ccccc2Cl)C1=O` (stereo not shown), 4.49%.
As for `COCC(=O)NC1CCN(C(=O)NCc2ccccc2)CC1`, the “hERG current change (%, negative = inhibition) at 1uM” value was determined as 2.12%.
For `Cc1ccc(C(c2cc(Br)ccc2O)N2CCSCC2)cc1` (stereo not shown), the “hERG current change (%, negative = inhibition) at 1uM” value is reported as -7.34%.
Turning to `O=c1[nH]c(C2CCCN(S(=O)(=O)c3ccccc3)C2)nc2c1nnn2Cc1cccc(Cl)c1` (stereo not shown), the “hERG current change (%, negative = inhibition) at 1uM” value was found to be 16%.
With `Cc1c(C(=O)N2CCCc3ccccc32)oc2ccc(S(=O)(=O)N3CCOCC3)cc12`, the “hERG current change (%, negative = inhibition) at 1uM” value is recorded as -11.9%.
To `O=C(NCC1CC1)c1onc(CSc2ccc(F)cc2)c1C(=O)NCC1CC1` belongs 0.191%; to `CO/N=C/C(C#N)c1ncc(C(F)(F)F)cc1Cl` (stereo not shown), -4.28%; to `CCOc1ccc(-c2nnc(NC(=O)Cc3cc(OC)c(OC)c(OC)c3)o2)cc1`, 12.8%.
To `Cc1ccc(NC(=O)CSc2ncc3ccccn23)cc1C` belongs 3.69%.
Consider `CCC(Sc1ccc2nnc(-c3cccnc3)n2n1)C(=O)O` (stereo not shown), for which the “hERG current change (%, negative = inhibition) at 1uM” value came out at 14.5%.
With `CCOC(=O)C1=C(C)OC(N)=C(C#N)C1c1cc2ccccc2nc1N1CCCCC1` (stereo not shown), the “hERG current change (%, negative = inhibition) at 1uM” value is on record as 10.2%.
To `CC1(c2ccccc2Cl)NC(=O)N(CC(=O)Nc2ccc3c(c2)OCO3)C1=O` (stereo not shown) belongs 8.46%; to `Cc1cc(SCC(=O)c2ccccc2)nc(C)n1`, 15.6%; to `Br.Cc1ccc(Nc2nc(-c3sc(N)nc3C)cs2)cc1`, 8.96%.
To `COc1ccccc1CNC(=O)CSC1=NCCS1` belongs 14.4%; to `S=C(Nc1ccccc1Cl)N(CCN1CCCCC1)Cc1ccco1`, -16%; to `Cc1[nH]c(C)c(S(=O)(=O)Nc2cccc(Cl)c2C)c1C(=O)N1CCCC1`, 6.42%.
To `O=C(c1cc([N+](=O)[O-])cc([N+](=O)[O-])c1)N1CCN(Cc2ccc3c(c2)OCO3)CC1` belongs -22.1%; to `COC(=O)CC(NC(=O)c1ccc(C)cc1)c1ccccc1` (stereo not shown), 11.8%; to `COC(=O)c1c(C)[nH]c(-c2csc(N)n2)c1C`, 13.8%.
In the case of `CN(CC(=O)Nc1ccccc1Cl)C(=O)CN1C(=O)C2CCCCC2C1=O` (stereo not shown), the “hERG current change (%, negative = inhibition) at 1uM” value is -1%.
In the case of `CCN(CC)C(=O)COn1c(SCC(=O)N(CC)CC)nc2ccccc2c1=O` it was -3.4%.
As for `COc1ccc(S(=O)(=O)NCC2CCCN(C(=O)CNC(C)=O)C2)cc1` (stereo not shown), the “hERG current change (%, negative = inhibition) at 1uM” value stood at 21.7%.
In the case of `Cc1ccc(N2CCN(C(=O)c3ccccc3)CC2)c(C)c1` it was 9.08%; in that of `CCN(CC(=O)NCc1ccccn1)S(=O)(=O)c1ccc(OC)cc1`, 13.2%; in that of `COc1ccc(/C=C/C(=O)OCC(=O)Nc2ccc(C)cc2)cc1S(=O)(=O)N1CCOCC1`, -3.01%.
Regarding `COc1ccc(N2C(=O)CSC23C(=O)N2c4c(cccc43)C(C)=CC2(C)C)cc1` (stereo not shown), the “hERG current change (%, negative = inhibition) at 1uM” value amounted to 7.29%.
Turning to `CN(C)CCCNS(=O)(=O)c1ccc(-n2nnc3ccccc32)c([N+](=O)[O-])c1`, the “hERG current change (%, negative = inhibition) at 1uM” value was 8.96%.
In the case of `COCCCn1c(=S)[nH]c2sc3c(c2c1=O)CCCC3` it was 8.96%; in that of `CCCc1nnc(SCC(=O)Nc2ccc(NC(C)=O)cc2)n1-n1cccc1`, 1.06%; in that of `CCC(=NCC1CCCO1)c1c(O)[nH]c(=O)[nH]c1=O` (stereo not shown), 1.97%.
Regarding `Cc1nn(C)c(C(=O)NNC(=S)NC2CCCCC2)c1Br`, the “hERG current change (%, negative = inhibition) at 1uM” value is -1.69%.
In the case of `S=c1[nH]nc(CCc2nc3ccccc3[nH]2)n1-c1cccc(Cl)c1` it was 19.1%.
As to `CC(C)NC(=O)c1cccc(Cn2cc(Cl)cn2)c1`, the “hERG current change (%, negative = inhibition) at 1uM” value is reported as 7.33%.
